These results are taken from the RNAGym collection of RNA variant scans (doi:10.7554/elife.90254).

The source gives no read counts; variants with many changes may rest on few reads.

To fix the notation:
B1: OR4K15 (parent)
chain: GUUAACGGUCAUAGGCCAUGGAAACUAGGAGCACCAUUUCGCUGCCAGUGAAGAAAUGAACAAAGAAAAUCUGGGCCAGGCAGGCAUCAAAAGAAAUAGUCUUGCGCUCAACCAGAAAGUCUGUAAUCAUUUUAAGGGUA

In the data set the parent is B1. The experiment in a line: self-cleavage, relative activity (ratio to wild type); higher = more cleavage; in vitro, sequencing; the parent is a self-cleaving ribozyme.
For the variant A62G U102C A126G A135U, the self-cleavage was found to be 0.88.

As to A63U U70A A134G, the self-cleavage was determined as 1.35.

Turning to A59U U103C A117G, the self-cleavage is 1.58.

In the case of A66G A96G A114G, the self-cleavage was found to be 1.14.

Turning to A63G U70C A91G, the self-cleavage came to 0.64.

In the case of A62G U102C U124C, the self-cleavage stood at 0.61.

Consider A66U A96G A110G, for which the self-cleavage was 0.08.

In the case of A64G A82G A94G A110G, the self-cleavage came to 0.04.

Turning to A60G U102C U103C U132A, the self-cleavage is 0.08.

On to A66G A78G U100C, for which the self-cleavage was determined as 0.29.

Take A62G U127C G136U U139C: the self-cleavage stood at 1.65.

With A64G A69G U130G, the self-cleavage stood at 1.18.

For the variant A63G U70C A126U, the self-cleavage amounted to 0.98.

On to A60G A63G U103C G106A, for which the self-cleavage came out at 0.02.

Consider A63G A69G U87C, for which the self-cleavage was determined as 1.96.

In the case of A63G A68G G138A, the self-cleavage was 1.55.

Turning to A60G A66G A92U, the self-cleavage came out at 1.26.

Take A64G G104A A111G A126G: the self-cleavage turned out to be 0.

A60U A86U U132C: the self-cleavage came out at 2.19.

For A62U U87C U102C, the self-cleavage turned out to be 2.01.

Take A62U A68G A89C: the self-cleavage stood at 0.88.

In the case of C61U U122C U131C, the self-cleavage was 1.78.

For A66G A94G U102C, the self-cleavage was determined as 1.8.

In the case of A62U U72C A78U, the self-cleavage was determined as 0.08.

In the case of A62U U100A U122C, the self-cleavage came out at 0.81.

In the case of A66G U108A U132C, the self-cleavage was determined as 0.01.

Turning to A63G U72G A78U A140G, the self-cleavage was 0.07.

For A64G U72C A117G, the self-cleavage is 0.13.

With A63G A78U U127G, the self-cleavage amounted to 0.24.

As for A60G A64G A114G, the self-cleavage is 0.34.

As to A62U A92G A117G, the self-cleavage was found to be 1.06.

Turning to A64G G75A A94G C112U, the self-cleavage was 0.02.

As for A63G A86G U87C A117G U130C, the self-cleavage turned out to be 0.59.

For A64G A94G A129G, the self-cleavage was 0.52.

As for A66G U70C A78G A95G A116G U122C, the self-cleavage worked out at 0.18.

For the variant A64U A89G A94U, the self-cleavage is 0.56.

Turning to A63C U102C A116U, the self-cleavage worked out at 0.73.

As to A64G U70A U100C U108C U122A A125C, the self-cleavage stood at 0.

A67G A68G A69G: the self-cleavage is 1.01.

Turning to A63U U103C U132A, the self-cleavage came out at 0.44.

For the variant A62U A63C U87G, the self-cleavage was 0.4.

For A63G G75A U124C, the self-cleavage is 0.22.

On to A60U U122A A129G, for which the self-cleavage amounted to 1.54.

As to A60G A62C A114G, the self-cleavage came to 0.02.

For the variant A66G U72C A95G A96G, the self-cleavage amounted to 0.12.

For the variant A62U A68C A94G, the self-cleavage came to 1.05.

For A64G U122C U132C, the self-cleavage worked out at 2.26.

In the case of A64U A82G A118C A126G U130C, the self-cleavage amounted to 0.06.

A62G A66G A92G: the self-cleavage is 1.35.

For the variant A63G U87A U100A U127A, the self-cleavage was 0.5.

In the case of A64G A67G A94G A116U A135U, the self-cleavage came to 0.3.

A62U U87A A94G: the self-cleavage was 1.6.

For A60G A64G G106U, the self-cleavage came to 0.02.

As for A63G U102C U103C G119C, the self-cleavage is 0.19.

Turning to A63G A114G U133C, the self-cleavage worked out at 0.41.

As for A66U A86U U97A A110G, the self-cleavage was found to be 0.17.

On to A60G U87C A111G, for which the self-cleavage stood at 0.05.

For A63G A82G U103A, the self-cleavage turned out to be 0.45.

Consider A60G A91C U120C U124C, for which the self-cleavage was 0.25.

Take A60G U102C U122C: the self-cleavage is 1.05.

For A62G U70C G138A, the self-cleavage is 0.46.

For A62U A67G C77A A92U, the self-cleavage was 0.54.

In the case of A63U A66G U131C, the self-cleavage is 1.98.

A67G A68G U100C: the self-cleavage turned out to be 1.16.

As for G65A A68G U72C U122G U127C, the self-cleavage came to 0.1.

For the variant A64G A90G A117G, the self-cleavage was determined as 0.82.

Turning to A60G A110G A118U, the self-cleavage was 0.06.

In the case of A63G A89G A92G U102C G106A A125G U127C A135G, the self-cleavage amounted to 0.

On to A63U U72C U97C, for which the self-cleavage was determined as 0.15.

For the variant A60U G74A A125G, the self-cleavage was determined as 0.03.

As to A63G A89U U97C A117G, the self-cleavage turned out to be 1.84.

Regarding A62U A69G U70A, the self-cleavage came to 1.38.

As to A62C U102C A135G, the self-cleavage was found to be 2.44.

In the case of A60G A94G U108C A126G, the self-cleavage came out at 0.

As for A60G U120C A134G, the self-cleavage came to 0.48.

With A59U U127C U130C A140U, the self-cleavage was found to be 0.59.

For the variant A64G A91U U103C, the self-cleavage amounted to 0.76.

Turning to A63G A66G A111G, the self-cleavage came out at 0.05.

Turning to A60G A62U U102C, the self-cleavage was 2.1.

Regarding A64G U108C U131C, the self-cleavage is 0.01.

Turning to A60G U130C U131C, the self-cleavage stood at 0.89.

For A62G A94U A95G A116G U133C A134U, the self-cleavage is 1.68.

As for A62U G79A A111U, the self-cleavage came to 0.02.

Take A66U A78G A117U: the self-cleavage amounted to 0.12.

As for A64U C81U U108C, the self-cleavage was 0.01.

Take A64G U122C A135G: the self-cleavage was determined as 2.16.

Take A62G G75A C112U: the self-cleavage came out at 0.

Turning to A60G A67U A95G, the self-cleavage was found to be 2.14.

As for A63U A86U U87C A92G A129U, the self-cleavage is 0.21.

Take A63G A92G A117G: the self-cleavage was 1.23.

With A66U A91G A116G, the self-cleavage came out at 0.12.

For A60G A67G A90G U131C, the self-cleavage was determined as 0.2.

In the case of A60U A62G U70C A94G A117G, the self-cleavage stood at 1.78.

In the case of A63G G65A A86U, the self-cleavage was 2.1.

A66G U100A U132C U139A: the self-cleavage is 0.32.

Consider A67C A68U A111G, for which the self-cleavage was determined as 0.01.

Turning to A64G A82G A86U, the self-cleavage stood at 1.01.

As to A67G A82U U132C, the self-cleavage was determined as 0.27.

For A60G A96G A114G, the self-cleavage came to 0.4.

With A64G U132A U139C, the self-cleavage was 2.

A66G C77U A114G: the self-cleavage was 1.55.

Turning to A66C G73U A98G U102A A126G, the self-cleavage came to 0.07.

For A66G A92G C105U, the self-cleavage came to 0.

In the case of A64G U72A U102A, the self-cleavage turned out to be 0.13.

For the variant A62U A94G A116U U130C, the self-cleavage turned out to be 0.16.

Take A60G A64G C77U A78G: the self-cleavage was 0.29.

Consider A63G U70C A82U, for which the self-cleavage amounted to 0.12.

For the variant A60U A69G A82C A111G, the self-cleavage is 0.02.

Take A62C U70C G75A A135G: the self-cleavage came out at 0.09.

For the variant A66G A90G A126U, the self-cleavage was found to be 0.97.

Regarding A60G A89G A135U, the self-cleavage turned out to be 1.84.

For the variant A62C A96G U120C, the self-cleavage stood at 1.17.

Consider A64G U120G A126G, for which the self-cleavage was 1.38.

A60G A69G U130C: the self-cleavage came out at 0.5.

Take A60G G119A U130C U139C: the self-cleavage was 1.3.

As to A62G A82U A94G, the self-cleavage amounted to 0.15.

Take A63G A86G A94U A111G: the self-cleavage was 0.03.

For the variant A60G U122C U132C, the self-cleavage was 0.78.

For the variant A60U U102A C105U, the self-cleavage turned out to be 0.11.

A62G A96G U122C U124C: the self-cleavage is 1.81.

As to C61U A67G A140U, the self-cleavage came to 1.8.

Regarding A63G A96G A118G, the self-cleavage turned out to be 1.7.

For the variant A62G A114G U124C, the self-cleavage was 0.11.

Take A64G A117G U122C: the self-cleavage amounted to 1.74.

As to A64U A68G A118G, the self-cleavage was 0.79.

A60G U120A U132C: the self-cleavage was 1.08.

A67G A68G G73U A82G A126G: the self-cleavage stood at 0.12.

On to A60G G75A U102C, for which the self-cleavage came out at 0.17.

For A64G A69G U100G A117G, the self-cleavage stood at 2.17.

For A60G U72C A78U A114U, the self-cleavage is 0.01.

For A62C A86G A98U, the self-cleavage worked out at 0.76.

On to A63G A86G U97A, for which the self-cleavage stood at 1.35.

Consider A60G A86G A111G, for which the self-cleavage amounted to 0.02.

As for A66G A90G A91G, the self-cleavage was 1.31.

As to A63U U70C A92U U127C, the self-cleavage was 0.73.

Turning to A66C A96G U97C A117U A140G, the self-cleavage was found to be 0.59.

For the variant A66G U70C A95U U103G U131C, the self-cleavage stood at 0.01.

Consider A66G C77U U122C A140G, for which the self-cleavage came out at 1.54.

In the case of A66G A89U U100C, the self-cleavage came out at 2.17.

Turning to A66U A94C U102C, the self-cleavage worked out at 1.4.

Consider A66G A96G A118G U132C, for which the self-cleavage is 1.56.

With A62U A89G U127G, the self-cleavage came to 1.78.

Take A60U U72A A96G A111G: the self-cleavage came out at 0.04.

With A62U A64G U120C, the self-cleavage was 0.74.

Consider A66U A111G A140G, for which the self-cleavage is 0.01.

In the case of G65U C101A A114G, the self-cleavage is 0.

A66G U131C U139C A140G: the self-cleavage stood at 2.37.

On to A62G U108A A114U, for which the self-cleavage stood at 0.01.

For the variant A63G A82C A94G, the self-cleavage was determined as 0.19.

With A64U U87C A125G U133C, the self-cleavage was 0.66.

As for A67G A82G A90G U108C A111G, the self-cleavage is 0.

With A64G A68G U120C U122A U130A, the self-cleavage amounted to 1.11.

Regarding A62G A94G U120C, the self-cleavage came to 0.67.

For the variant A60U A68G A86G A117G, the self-cleavage is 1.21.

Regarding A64G C77A A117G, the self-cleavage worked out at 0.53.

A66G A82U A96U: the self-cleavage was 0.25.

Take A64G A125G U133C: the self-cleavage is 0.71.

For A60G A82G A92G A95G A140U, the self-cleavage amounted to 0.32.

In the case of A67G A69G A86G, the self-cleavage was found to be 1.17.

As to A63C U70A A78U C105U U108C, the self-cleavage was 0.

For A63G A82G A96G A111C U120C, the self-cleavage was determined as 0.01.

Consider A64G U70A A82G, for which the self-cleavage came to 0.22.

Consider A63G U102A U103C, for which the self-cleavage is 0.26.

Turning to A67G A69G A117G, the self-cleavage came out at 1.17.

Turning to A62G U102A U103C, the self-cleavage was 0.22.

As to A62U U103A U108C A135G, the self-cleavage came out at 0.03.

On to A62U U70A A117G, for which the self-cleavage was determined as 0.86.
